From PMC7180069 (PLoS ONE, 2020)

Molecular target: the molecule itself
Experiment: non-reducing SDS-PAGE; recombinant CCL20 on SDS-PAGE under non-reducing conditions

B1: CCL20 (natural protein)
chain: not shown
notes: recombinant CCL20; also called LARC; source: recombinant
- stoichiometry N: 2
